{"source": "the antibiotic and cytotoxicity screens of Wong et al. (2023)", "key": {"HSkMC": {"system": "HSkMC", "assay": "cytotoxicity call (relative viability < 0.9)", "conditions": "10 µM"}, "HepG2": {"system": "HepG2", "assay": "cytotoxicity call (relative viability < 0.9)", "conditions": "10 µM"}, "S. aureus RN4220": {"system": "S. aureus RN4220", "assay": "growth inhibition call (relative growth <= 0.2)", "conditions": "50 µM"}}, "note": "The list shows a part of the results."}
{"smiles": "C[C@@H]1CN([C@H](C)CO)C(=O)c2cccc(NC(=O)c3ccc(-c4nccs4)cc3)c2O[C@@H]1CN(C)Cc1ccc(Cl)c(Cl)c1", "values": [{"measurement": "cytotoxicity call", "setting": "HSkMC", "result": "inactive"}, {"measurement": "cytotoxicity call", "setting": "HepG2", "result": "inactive"}, {"measurement": "growth inhibition call", "setting": "S. aureus RN4220", "result": "inactive"}]}
{"smiles": "COc1ccc(NC(=O)Nc2ccc3c(c2)C(=O)N([C@@H](C)CO)C[C@H](C)[C@@H](CN(C)S(=O)(=O)c2ccc(F)cc2)OCCCC[C@@H](C)O3)cc1", "values": [{"measurement": "cytotoxicity call", "setting": "HSkMC", "result": "inactive"}, {"measurement": "cytotoxicity call", "setting": "HepG2", "result": "inactive"}, {"measurement": "growth inhibition call", "setting": "S. aureus RN4220", "result": "inactive"}]}
{"smiles": "C=CC[C@@H](CC(=O)N(CCO)Cc1ccccc1)C(=O)NC[C@@H](OC(=O)[C@@H](CC=C)Cc1ccc(F)cc1)c1ccccc1", "values": [{"measurement": "cytotoxicity call", "setting": "HSkMC", "result": "inactive"}, {"measurement": "cytotoxicity call", "setting": "HepG2", "result": "inactive"}, {"measurement": "growth inhibition call", "setting": "S. aureus RN4220", "result": "inactive"}]}
{"smiles": "Oc1c(Br)cc(Br)c2cccnc12", "values": [{"measurement": "cytotoxicity call", "setting": "HSkMC", "result": "inactive"}, {"measurement": "cytotoxicity call", "setting": "HepG2", "result": "active"}, {"measurement": "growth inhibition call", "setting": "S. aureus RN4220", "result": "inactive"}]}
{"smiles": "C[C@H](CO)N1C[C@H](C)[C@@H](CN(C)S(=O)(=O)c2ccc(F)cc2)Oc2ccc(NC(=O)Nc3cccc4ccccc34)cc2C1=O", "values": [{"measurement": "cytotoxicity call", "setting": "HSkMC", "result": "inactive"}, {"measurement": "cytotoxicity call", "setting": "HepG2", "result": "inactive"}, {"measurement": "growth inhibition call", "setting": "S. aureus RN4220", "result": "inactive"}]}
{"smiles": "c1ccc(CNc2ccc3c(ccc4c5ccccc5[nH]c34)n2)cc1", "values": [{"measurement": "cytotoxicity call", "setting": "HSkMC", "result": "active"}, {"measurement": "cytotoxicity call", "setting": "HepG2", "result": "active"}, {"measurement": "growth inhibition call", "setting": "S. aureus RN4220", "result": "inactive"}]}
{"smiles": "C[C@H](CO)N1C[C@H](C)[C@H](CN(C)CC2CC2)OCCCC[C@H](C)Oc2ccc(NS(=O)(=O)c3ccc(Cl)cc3)cc2C1=O", "values": [{"measurement": "cytotoxicity call", "setting": "HSkMC", "result": "inactive"}, {"measurement": "cytotoxicity call", "setting": "HepG2", "result": "inactive"}, {"measurement": "growth inhibition call", "setting": "S. aureus RN4220", "result": "inactive"}]}
{"smiles": "COc1ccc(NC(=O)Nc2ccc3c(c2)C(=O)N([C@H](C)CO)C[C@@H](C)[C@H](CN(C)Cc2ccc(-c4ccccc4)cc2)O3)cc1", "values": [{"measurement": "cytotoxicity call", "setting": "HSkMC", "result": "inactive"}, {"measurement": "cytotoxicity call", "setting": "HepG2", "result": "active"}, {"measurement": "growth inhibition call", "setting": "S. aureus RN4220", "result": "inactive"}]}
{"smiles": "O=C(C[C@@H]1CC[C@H](NC(=O)c2cccnc2)[C@@H](CO)O1)NCCN1CCCCC1", "values": [{"measurement": "cytotoxicity call", "setting": "HSkMC", "result": "inactive"}, {"measurement": "cytotoxicity call", "setting": "HepG2", "result": "inactive"}, {"measurement": "growth inhibition call", "setting": "S. aureus RN4220", "result": "inactive"}]}
{"smiles": "Cc1ccc(Cn2c3ccccc3c3ccccc32)cc1", "values": [{"measurement": "cytotoxicity call", "setting": "HSkMC", "result": "inactive"}, {"measurement": "cytotoxicity call", "setting": "HepG2", "result": "inactive"}, {"measurement": "growth inhibition call", "setting": "S. aureus RN4220", "result": "inactive"}]}
{"smiles": "CN(C)CC(=O)N[C@H]1CC[C@H](CC(=O)NCCN2CCCCC2)O[C@H]1CO", "values": [{"measurement": "cytotoxicity call", "setting": "HSkMC", "result": "inactive"}, {"measurement": "cytotoxicity call", "setting": "HepG2", "result": "inactive"}, {"measurement": "growth inhibition call", "setting": "S. aureus RN4220", "result": "inactive"}]}
{"smiles": "O=C(NCC[C@@H]1CC[C@@H](NS(=O)(=O)c2cccc(F)c2)[C@@H](CO)O1)C1CC1", "values": [{"measurement": "cytotoxicity call", "setting": "HSkMC", "result": "inactive"}, {"measurement": "cytotoxicity call", "setting": "HepG2", "result": "inactive"}, {"measurement": "growth inhibition call", "setting": "S. aureus RN4220", "result": "inactive"}]}
{"smiles": "C[C@H]1CN([C@@H](C)CO)C(=O)Cc2cc(NC(=O)CCCN(C)C)ccc2O[C@@H]1CN(C)S(=O)(=O)c1ccccc1", "values": [{"measurement": "cytotoxicity call", "setting": "HSkMC", "result": "inactive"}, {"measurement": "cytotoxicity call", "setting": "HepG2", "result": "inactive"}, {"measurement": "growth inhibition call", "setting": "S. aureus RN4220", "result": "inactive"}]}
{"smiles": "COc1ccc(NC(=O)N(C)C[C@H]2OCc3cn(nn3)CCCC(=O)N([C@@H](C)CO)C[C@H]2C)c(OC)c1", "values": [{"measurement": "cytotoxicity call", "setting": "HSkMC", "result": "inactive"}, {"measurement": "cytotoxicity call", "setting": "HepG2", "result": "inactive"}, {"measurement": "growth inhibition call", "setting": "S. aureus RN4220", "result": "inactive"}]}
{"smiles": "COCC#Cc1ccc([C@@H]2[C@@H](CO)N3C(=O)CN(C(=O)c4ccncc4)C[C@@H]23)cc1", "values": [{"measurement": "cytotoxicity call", "setting": "HSkMC (human skeletal muscle cells)", "result": "inactive"}, {"measurement": "cytotoxicity call", "setting": "HepG2", "result": "inactive"}, {"measurement": "growth inhibition call", "setting": "S. aureus RN4220", "result": "inactive"}]}
